Assay results from PubChem BioAssay AID1986 (Sanford-Burnham Center for Chemical Genomics, 2009).
The other results are listed elsewhere or left out. Shown are side measurements of this screen, not its main read-out; they come without a call.

Assay: inhibitors of HIV fusion peptide binding, primary screen, biochemical, uHTS, fluorescence dequenching (AID 1986)
Details: cell-free peptide binding, 30 min, measured here: repeat confirmation average inhibition, at 18.6 µM, stronger effect = higher value

| Structure (SMILES) | inhibition [%] |
| --- | --- |
| CCc1nnc(NS(=O)(=O)c2ccc(NC(=S)NC(=O)/C=C/c3ccc(C(C)C)cc3)cc2)s1 | 81.7 |
| O=C(O)CN1C(=O)/C(=C\c2cc(Br)ccc2OCc2ccc(Cl)cc2Cl)SC1=S | 78.3 |
| COc1cc(C(=O)Nc2scc(-c3ccc(Br)cc3)c2C(=O)O)cc(OC)c1OC | 51.7 |
| CCCCCOc1ccc(C2C(C(=O)c3ccc(C)o3)=C(O)C(=O)N2c2cc(C)on2)cc1 (stereo not given) | 62.6 |
| CCc1nnc(NS(=O)(=O)c2ccc(NC(=S)NC(=O)/C=C/c3cccs3)cc2)s1 | 64.7 |
| COc1ccccc1OCCOc1ccc(/C=C2\C(=N)N3N=C(S(C)(=O)=O)SC3=NC2=O)cc1 | 77.1 |
| Oc1c(Br)cc(Br)c(/C=N/n2c(-c3ccccc3)n[nH]c2=S)c1Br | 82.2 |
| O=C(COc1ccc2ccccc2c1)Nc1cccc(C(=O)Nc2ccccc2C(=O)O)c1 | 61.6 |
| CC(C)(C)OC(=O)N1CCC(c2cc(=O)n3[nH]cc(C(=O)Nc4ccc(F)c(Cl)c4)c3n2)CC1 | 81.8 |
| O=C1NN(c2ccccc2)C(=O)/C1=C\c1cccc(OC(=O)c2cccs2)c1 | 55.2 |
| O=C(COc1ccc(Cl)cc1Cl)Nc1ccc(C(=O)Nc2ccccc2C(=O)O)cc1 | 64.4 |
| O=C(O)CSc1cc(C(=O)c2cc(F)ccc2O)cn2c(=O)c3c(-c4ccccc4)csc3nc12 | 75.6 |
| O=[N+]([O-])c1cc(Cl)cc(/C=N/NC(=S)Nc2ccc(S(=O)(=O)N3CCOCC3)cc2)c1O | 59.6 |
| Cc1c2c(=O)n(-c3nc4ccccc4s3)nc-2cc(O)n1Cc1ccccc1 | 56.1 |
| COc1cc(/C=C2\C(=N)N3N=C(S(C)(=O)=O)SC3=NC2=O)ccc1OC(=O)c1ccco1 | 51.2 |
| COc1ccc2c(c1)cc(C(=O)N/N=C/c1c(O)c(C(=O)O)cc3ccccc13)n2C | 95.1 |
| O=C1N=c2ccc(Br)cc2=C1c1sc(=S)n(NS(=O)(=O)c2ccccc2)c1O | 50.3 |
| CCS(=O)(=O)C1=NSC2=NC(=O)/C(=C\c3cc(C)n(-c4cccc(OC)c4)c3C)C(=N)N21 | 72.4 |
| COc1ccccc1NS(=O)(=O)c1cccc(-n2c(O)c(C=Nc3ccccc3C(=O)O)c3ccccc3c2=O)c1 | 65.5 |
| O=C(O)CN1C(=O)/C(=C\c2cc(Br)ccc2OCc2ccc([N+](=O)[O-])cc2)SC1=S | 66.6 |
| CCOc1cc(/C=N/N=C2/NC(=O)C(CC(=O)O)S2)ccc1OCc1ccc(Cl)cc1 (stereo not given) | 58.7 |
| O=C(COc1cccc2ccccc12)Nc1ccc(Cl)cc1C(=O)O | 55 |

| Structure (SMILES) | inhibition [%] |
| --- | --- |
| O=C(NC(=S)Nc1ccccc1C(=O)O)c1ccc(-c2ccc(Br)cc2)o1 | 56.1 |
| O=C(NN1C(=O)/C(=C/c2ccc(O)c([N+](=O)[O-])c2)SC1=S)c1ccccc1Cl | 65 |
| Oc1c(Cl)cc(Cl)cc1Sc1cc(Cl)cc(Cl)c1O | 90 |
| O=c1[nH]c(=S)[nH]c2c1C(c1ccc(Br)cc1)c1c([nH]c(=S)[nH]c1=O)O2 | 74.8 |
| CC(C)NC(=O)c1sc(=S)n2c1[nH]c(=O)c1ccc(C(=O)NCCc3ccc(Cl)cc3)cc12 | 86.3 |
| O=C(O)/C(CC(=O)c1ccc(Cl)cc1)=N/Nc1ccc([N+](=O)[O-])cc1[N+](=O)[O-] | 52.2 |
| COc1ccc(/C=C2/SC(=O)N(CCCCCC(=O)Nc3ccccc3C(=O)O)C2=S)cc1 | 72.1 |
| COc1ccc(C(=O)Oc2ccc(/C=N/Nc3ccc(Cl)c(C(=O)O)c3)cc2OC)cc1 | 72.3 |
| CC(C)COc1ccc(-c2nn(-c3ccccc3)cc2/C=C2/SC(=S)N(CC(=O)O)C2=O)cc1 | 89.8 |
| O=C(NCc1ccccc1)c1ccc2c(=O)[nH]c3c(C(=O)NCC4CCCO4)sc(=S)n3c2c1 (stereo not given) | 54.5 |
| Cc1cccc(OCC(=O)Nc2ccc(C(=O)Nc3ccccc3C(=O)O)cc2)c1C | 50.4 |
| Cc1cccc(C)c1-n1cccc1/C=C1\SC(=S)N(c2cccc(C(=O)O)c2)C1=O | 63.2 |
| Cc1sc(-n2c(C)cc(/C=C3\SC(=S)NC3=O)c2C)c(C#N)c1C | 64.6 |
| O=C(O)c1ccc(Nc2nc(-c3cc4ccccc4oc3=O)cs2)cc1O | 80.9 |
| Cc1ccccc1C(=O)Nc1cccc(C(=O)N/N=C/c2cc(Cl)cc([N+](=O)[O-])c2O)c1 | 50.3 |
| Cc1c(Cl)cccc1NS(=O)(=O)c1ccc2c(c1)C1C=CCC1C(c1ccc(C(=O)O)cc1)N2 (stereo not given) | 80 |
| O=C(O)c1ccc(N/N=C/c2ccc(-c3cccc(Cl)c3)o2)cc1 | 56.2 |
| COc1cccc(-c2nc(SCC(=O)Nc3nc(-c4ccccc4)c(C)s3)[nH]c(=O)c2C#N)c1 | 80.7 |
| O=C1NN(c2ccc(Cl)c(Cl)c2)C(=O)/C1=C/c1cccc(OC(=O)c2cccs2)c1 | 84.4 |
| O=C(O)c1ccc(N2C(=O)/C(=C/c3ccc(-c4ccc([N+](=O)[O-])cc4)o3)C=C2c2ccccc2)cc1 | 76.5 |
| CC(/C=C1\SC(=S)N(CCCC(=O)Nc2ccc(C(=O)O)cc2)C1=O)=C\c1ccccc1 | 61.7 |
| COc1ccc(NC(=O)c2c[nH]n3c(=O)cc(C4CCN(C(=O)OC(C)(C)C)CC4)nc23)cc1Cl | 76.4 |

| Structure (SMILES) | inhibition [%] |
| --- | --- |
| CCC(C)(C)C1CCc2c(sc(NC(=O)c3ccccc3C(=O)O)c2C#N)C1 (stereo not given) | 63.9 |
| O=C(O)C1Nc2c(O)cccc2C2C=CCC12 (stereo not given) | 77.2 |
| CCCOc1cccc(C2C(C(=O)c3cc4ccccc4o3)=C(O)C(=O)N2c2cc(C)on2)c1 (stereo not given) | 53 |
| C=CC#CC[N+]1(CC#Cc2ccccc2)CCOCC1 | 82.5 |
| CC1(C)CC(=O)C2=C(C1)c1c(ccc3ccccc13)NC2c1cc([N+](=O)[O-])cc([N+](=O)[O-])c1O (stereo not given) | 73.2 |
| O=C(O)CCN1C(=O)/C(=C\c2cccc(Oc3ccccc3)c2)SC1=S | 62.8 |
| COc1cc(/C=C2/C(=O)NN(c3ccc(Cl)cc3)C2=O)ccc1OC(=O)c1ccco1 | 50.4 |
| O=C(O)c1[nH]c2ccccc2c1C(c1cc(Cl)cc([N+](=O)[O-])c1O)c1c(C(=O)O)[nH]c2ccccc12 | 74.4 |
| CCOc1cc(Br)cc(C(c2c(C(=O)O)[nH]c3ccccc23)c2c(C(=O)O)[nH]c3ccccc23)c1O | 87.8 |
| O=C(CCN1C(=O)/C(=C/c2ccco2)SC1=S)Nc1ccc(C(=O)O)c(O)c1 | 51.2 |
| O=C(O)c1ccccc1NC(=O)c1ccccc1Nc1ccccc1 | 53.9 |
| CCOc1cc(/C=N/NC(=O)c2ccc(-c3csc(Nc4ccc(C)cc4)n3)cc2)ccc1OCC(=O)O | 87 |
| CS(=O)(=O)C1=NSC2=NC(=O)/C(=C\c3ccc(OS(=O)(=O)c4ccccc4)cc3)C(=N)N21 | 71.1 |
| CCCCCC#CCC#CCC#CCC#CCCCC(=O)O | 71.5 |
| COc1ccc(C(=O)/C=C/c2ccc(OCc3ccccc3)cc2)cc1CSCC(=O)O | 69.2 |
| O=C(O)COc1ccc(Br)cc1C(c1c(C(=O)O)[nH]c2ccccc12)c1c(C(=O)O)[nH]c2ccccc12 | 81 |
| O=C(O)c1ccc(-c2ccc(/C=c3/sc4nc5ccccc5n4c3=O)o2)cc1Cl | 100 |
| CCCCn1c(O)c(/C=C2\C=Nc3ccccc32)c(=O)[nH]c1=O | 118 |
| Cc1cn2c(N)c(C=C3C=C(Cl)C(=O)C(Cl)=C3)c(=O)nc2s1 | 66.6 |
| CCOc1ccc(NC(=NCc2ccc3c(c2)OCO3)SC2CC(=O)N(c3ccc(C(=O)O)cc3)C2=O)cc1 (stereo not given) | 55.7 |
| O=C(O)c1[nH]c2ccccc2c1C(c1c(F)cccc1Cl)c1c(C(=O)O)[nH]c2ccccc12 | 56.9 |
| CCc1ccc(S(=O)(=O)/N=C2\C=C(NS(=O)(=O)c3ccccc3)C(=O)c3ccccc32)cc1 | 71.8 |

| Structure (SMILES) | inhibition [%] |
| --- | --- |
| Cc1ccc(C)c(S(=O)(=O)/N=C2\C=C(NS(=O)(=O)c3ccccc3)C(=O)c3ccccc32)c1 | 69.1 |
| O=C(O)COc1ccc(/C=N/NC(=O)c2ccc(-c3csc(Nc4ccc(Cl)cc4)n3)cc2)cc1 | 52.2 |
| CN1C(=O)/C(=C/c2ccc(C(=O)Nc3ccc(O)cc3C(=O)O)cc2)SC1=S | 71.5 |
| Cc1ccc(/C=C2\SC(=S)N(CCCC(=O)Nc3ccccc3C(=O)O)C2=O)cc1 | 53.4 |
| CCOC(=O)C1=C(C)N=c2s/c(=C/c3ccc(OCC(=O)O)cc3)c(=O)n2C1c1ccc(SC)cc1 (stereo not given) | 65.1 |
| CC(=O)Nc1sc(/C(C#N)=C/c2ccc(Cl)c(Cl)c2)nc1-c1ccc(C)cc1 | 176 |
| COc1cc(OC)c2c(O)c3c(c(-c4c5c(c(O)c6c(OC)cc(OC)cc46)CO[C@@H](C)[C@H]5O)c2c1)[C@H](O)[C@H](C)OC3 | 83.6 |
| Oc1c(Cl)cc(Cl)c(Cl)c1Cc1c(O)c(Cl)cc(Cl)c1Cl | 71.1 |
| Cc1cc(N2C(=O)C(O)=C(C(=O)c3ccc(C)o3)C2c2cccc(Oc3ccccc3)c2)no1 (stereo not given) | 51.4 |
| COc1cc([N+](=O)[O-])cc(/C=N/NC(=O)c2cc(-c3ccccc3)nc3ccccc23)c1O | 54.4 |
| CC1=C(C(=O)Nc2ccccc2)C(c2ccc(Cl)cc2)n2c(s/c(=C/c3cccc(OCC(=O)O)c3)c2=O)=N1 (stereo not given) | 60.5 |
| Cc1ccc(-n2c(O)c(C=Nc3ccccc3-c3n[nH]c(=S)[nH]c3=O)c3ccccc3c2=O)c(C)c1 | 56.3 |
| O=C(O)c1cc(-c2ccc(/C=N/Nc3ccc(Cl)cc3)o2)ccc1Cl | 54.7 |
| CS(=O)(=O)C1=NSC2=NC(=O)/C(=C\c3cccn3-c3ccc(Cl)cc3)C(=N)N21 | 69.9 |
| CCOC(=O)C1=C(C)N=c2s/c(=C\c3ccc(OCC(=O)O)cc3)c(=O)n2C1c1ccc(Cl)cc1 (stereo not given) | 63.5 |
| COc1ccc(-c2coc3c(C)c4oc(=O)c(CCC(=O)O)c(C)c4cc23)cc1 | 51.8 |
| COc1cc(/C=C2/SC(=S)N(Cc3ccccc3)C2=O)ccc1OCC(=O)O | 76.1 |
| CC1=C(C(=O)OC(C)C)C(c2ccc(Cl)cc2)n2c(s/c(=C\c3ccc(OCC(=O)O)cc3)c2=O)=N1 (stereo not given) | 54.6 |
| COc1cc(/C=C2\SC(=O)N(CC(=O)Nc3cccc(C)c3)C2=O)cc([N+](=O)[O-])c1O | 69.9 |
